# Experimental data taken from the antibiotic and cytotoxicity screens of Wong et al. (2023).
# Some of the results follow.
# Tested on: HepG2
# Assay: cytotoxicity call (relative viability < 0.9)
# Details: 10 µM
row,SMILES,cytotoxicity call
1,CCC(=O)N1C[C@]2(CN(C2)C(=O)CN2CCOCC2)c2c([nH]c3cc(ccc23)OC)[C@H]1CO,inactive
2,COc1ccc(NC(=O)N(C)C[C@@H]2OCc3ccccc3-c3c(n(C)c4ccccc34)C(=O)N([C@H](C)CO)C[C@H]2C)c(OC)c1,inactive
3,COc1ccc(S(=O)(=O)N(C)C[C@H]2Oc3ccc(NC(=O)Nc4c(C)noc4C)cc3CC(=O)N([C@@H](C)CO)C[C@H]2C)cc1,inactive
4,NCc1cccc(-c2nccs2)c1,inactive
5,C[C@@H]1CN([C@@H](C)CO)C(=O)c2cc(C#Cc3ccccc3)cnc2O[C@H]1CN(C)S(=O)(=O)c1ccccc1F,active
6,Cc1noc(C)c1NC(=O)Nc1cccc2c1O[C@@H](CN(C)C(=O)NC(C)C)[C@@H](C)CN([C@H](C)CO)C2=O,inactive
7,COc1cccc(S(=O)(=O)N[C@H]2CC[C@@H](CC(=O)NC3CCC3)O[C@H]2CO)c1,inactive
8,C[C@H](CO)N1C[C@H](C)[C@H](CN(C)S(=O)(=O)c2ccc(Oc3ccccc3)cc2)OCc2cnnn2CCCC1=O,inactive
9,C[C@@H]1CCCCO[C@H](CN(C)C(=O)CCC(F)(F)F)[C@@H](C)CN([C@@H](C)CO)C(=O)c2cc(NC(=O)C3CCCCC3)ccc2O1,inactive
10,COc1ccc(NC(=O)Nc2ccc3c(c2)C(=O)N([C@@H](C)CO)C[C@@H](C)[C@H](CN(C)Cc2ccc(C(F)(F)F)cc2)O3)cc1,inactive
11,C[C@H](CO)N1C[C@H](C)[C@@H](CN(C)S(C)(=O)=O)Oc2ccc(NC(=O)CCCCCC(=O)Nc3ccccc3N)cc2C1=O,inactive
12,Cc1noc(C)c1NC(=O)N(C)C[C@@H]1Oc2ncc(C#CC(C)(C)O)cc2C(=O)N([C@H](C)CO)C[C@@H]1C,inactive
13,CC(C)NC(=O)Nc1ccc2c(c1)CC(=O)N([C@H](C)CO)C[C@@H](C)[C@@H](CN(C)C(=O)NC1CCCCC1)O2,inactive
14,Cc1ccc(S(=O)(=O)N[C@H]2C=C[C@@H](CC(=O)NCCN3CCCCC3)O[C@@H]2CO)cc1,inactive
15,Cc1ccc(S(=O)(=O)Nc2ccc3c(c2)C(=O)N([C@H](C)CO)C[C@@H](C)[C@@H](CN(C)Cc2ccncc2)OCCCC[C@H](C)O3)cc1,inactive
16,C[C@@H]1CN([C@H](C)CO)C(=O)c2cc(NC(=O)Cn3cnnn3)ccc2O[C@@H]1CN(C)Cc1ccc2c(c1)OCO2,inactive
17,CCCNC(=O)N1C[C@H](O)COC[C@@H]2O[C@@H](CC(=O)NCCCN3CCOCC3)CC[C@H]21,inactive
18,COCC(=O)Nc1ccc2c(c1)[C@@H]1C[C@H](CC(=O)N3CCOCC3)O[C@H](CO)[C@@H]1O2,inactive
19,NC(=O)[C@H]1CCN(c2ncnc(N)c2F)C[C@@H]1N1CCC[C@@H](Nc2cc(Cl)cc(C(F)(F)F)c2)C1=O,inactive
20,C[C@@H]1CCCCO[C@@H](CN(C)Cc2ccccc2)[C@@H](C)CN([C@@H](C)CO)C(=O)c2cc(NC(=O)Nc3cccc4ccccc34)ccc2O1,inactive
21,C[C@@H]1CCCCO[C@H](CN(C)S(C)(=O)=O)[C@@H](C)CN([C@H](C)CO)C(=O)c2cc(NS(=O)(=O)c3ccc(F)cc3)ccc2O1,inactive
22,C[C@@H]1CN([C@@H](C)CO)C(=O)Cc2cc(NC(=O)Nc3ccccc3)ccc2O[C@H]1CN(C)S(C)(=O)=O,inactive
23,Cc1ccc(S(=O)(=O)Nc2ccc3c(c2)C(=O)N([C@H](C)CO)C[C@H](C)[C@H](CN(C)C(=O)Cc2ccccc2)OCCCC[C@@H](C)O3)cc1,inactive
24,NCc1ccc(-n2cccn2)cc1,inactive
25,CCCC#Cc1ccc2c(c1)O[C@@H](CN(C)Cc1ccc3c(c1)OCO3)[C@@H](C)CN([C@@H](C)CO)S2(=O)=O,inactive
26,Cc1ccc(S(=O)(=O)N(C)C[C@@H]2OCCCC[C@@H](C)Oc3ccc(NC(=O)Nc4ccc(F)cc4)cc3C(=O)N([C@H](C)CO)C[C@H]2C)cc1,active
27,C[C@@H]1CN([C@@H](C)CO)C(=O)c2cc(NC(=O)c3ccccc3)ccc2O[C@@H](C)CCCCO[C@H]1CN(C)Cc1ccc(C(=O)O)cc1,inactive
28,C[C@H]1CN([C@@H](C)CO)C(=O)c2cccc(NC(=O)c3ccc(-c4nccs4)cc3)c2O[C@H]1CN(C)Cc1ccc(C(F)(F)F)cc1,inactive
29,COCC#Cc1ccc2c(c1)O[C@@H](CN(C)S(=O)(=O)c1ccc(C)cc1)[C@H](C)CN([C@H](C)CO)S2(=O)=O,inactive
